In article PMC4336329 (PLoS ONE, 2015):
About 2,200 (0.71%) of roughly 310,000 compounds showed an effect of 50% or more. The effect is printed as a negative number. This is one part of the list.

These molecules were tested against human ether-à-go-go-related gene (hERG) potassium channel (human, UniProt Q12809) (assay: primary screen, population patch clamp on CHO cells stably expressing hERG).
Sequence of human ether-à-go-go-related gene (hERG) potassium channel (Q12809 whole entry, looked up): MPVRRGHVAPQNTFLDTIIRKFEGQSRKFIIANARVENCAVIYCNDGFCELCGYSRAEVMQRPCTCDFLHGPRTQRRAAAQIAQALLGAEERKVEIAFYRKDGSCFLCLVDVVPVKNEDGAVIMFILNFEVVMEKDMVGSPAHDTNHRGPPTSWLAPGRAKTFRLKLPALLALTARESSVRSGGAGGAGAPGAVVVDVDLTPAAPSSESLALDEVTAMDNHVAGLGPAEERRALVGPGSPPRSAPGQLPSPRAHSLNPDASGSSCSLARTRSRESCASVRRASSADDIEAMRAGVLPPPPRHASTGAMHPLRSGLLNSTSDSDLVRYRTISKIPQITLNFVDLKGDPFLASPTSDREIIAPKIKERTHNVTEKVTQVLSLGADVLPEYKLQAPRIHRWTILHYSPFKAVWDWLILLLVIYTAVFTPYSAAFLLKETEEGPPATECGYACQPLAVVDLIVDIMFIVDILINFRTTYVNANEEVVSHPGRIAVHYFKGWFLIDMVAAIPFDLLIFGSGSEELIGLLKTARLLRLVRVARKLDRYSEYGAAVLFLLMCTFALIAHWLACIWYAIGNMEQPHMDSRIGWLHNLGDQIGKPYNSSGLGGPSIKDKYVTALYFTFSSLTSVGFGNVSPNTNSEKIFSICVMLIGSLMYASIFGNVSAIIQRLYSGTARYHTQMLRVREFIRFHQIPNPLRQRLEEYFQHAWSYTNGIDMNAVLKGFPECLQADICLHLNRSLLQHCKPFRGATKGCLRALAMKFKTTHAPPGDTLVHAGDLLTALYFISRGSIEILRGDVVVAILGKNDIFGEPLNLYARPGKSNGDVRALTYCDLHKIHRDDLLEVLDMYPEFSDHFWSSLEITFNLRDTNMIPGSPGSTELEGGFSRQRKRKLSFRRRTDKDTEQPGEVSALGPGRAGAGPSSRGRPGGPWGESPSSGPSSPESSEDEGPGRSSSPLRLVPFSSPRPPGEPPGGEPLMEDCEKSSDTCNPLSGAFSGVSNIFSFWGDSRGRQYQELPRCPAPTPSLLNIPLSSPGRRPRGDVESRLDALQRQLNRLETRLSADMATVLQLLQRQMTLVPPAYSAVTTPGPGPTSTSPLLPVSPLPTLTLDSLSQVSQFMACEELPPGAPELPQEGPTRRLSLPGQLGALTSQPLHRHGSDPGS

| SMILES | hERG current change (%, negative = inhibition) at 1uM |
| --- | --- |
| O=C(N/C(=C/c1cccnc1)C(=O)N1CCOCC1)c1ccccc1 | 11% |
| O=C(NCc1ccccn1)c1cc(Cl)ccc1OCc1ccccc1 | 4.33% |
| COc1ccc(NC(=O)Cn2cccc2)cc1Cl | 5.11% |
| O=C(/C=C/Nc1ccccc1)c1ccccc1 | 9.71% |
| COC(=O)CNC(=O)CSc1nnc2cc(C)c3ccccc3n12 | -0.382% |
| CCOC(=O)C1CCN(S(=O)(=O)c2ccc(OCC(=O)OC)cc2)CC1 | 1.35% |
| COc1ccccc1NC(=O)NC1CCCc2ccccc21 (centres unmarked) | 1.78% |
| CN(C)CCNC(=O)Nc1ccc(Cl)c(Cl)c1 | -7.74% |
| O=C(Nc1ccccc1)N(c1ccccc1)C1C=CS(=O)(=O)C1 (centres unmarked) | 15.5% |
| Cc1ccccc1NC(=O)CC1SC(=O)N(c2ccccc2)C1=O (centres unmarked) | 12.4% |
| CCCC1=NN2C(=N)/C(=C\c3cc(C)n(-c4cc(C)cc(C)c4)c3C)C(=O)N=C2S1 | 1.66% |
| COc1ccccc1NC(=O)CCN1C(=O)c2ccccc2S1(=O)=O | 4.45% |
| CSc1ccc(/C=N/Nc2nc(C)cc(=O)[nH]2)cc1 | -17.9% |
| Cc1ccc(OC(=O)c2sc3ncn(C)c(=O)c3c2C)cc1 | 0.317% |
| Cc1cc(NC(=O)c2ccco2)ncc1NC(=O)Cc1ccccc1 | 5.29% |
| CC[C@@]1(c2ccccc2OC)ON(c2ccccc2C(F)(F)F)C1=O | 8.31% |
| CCOc1ccc(Nc2nc(NCc3ccco3)nc(N)c2[N+](=O)[O-])cc1 | 8.43% |
| C1COCCO1.O=C(Nc1nc(-c2ccc(S(=O)(=O)N3CCOCC3)cc2)cs1)c1ccccc1 | 7.55% |
| CCOC(=O)N1CCN(S(=O)(=O)c2ccc3[nH]c(=O)sc3c2)CC1 | 11.8% |
| CSCCC1NC(=O)N(CC(=O)Nc2ccc(Br)cc2Br)C1=O (centres unmarked) | 0.132% |
| O=C(c1ccco1)N1CCN(C(=O)C(Sc2ccccc2)c2ccccc2)CC1 (centres unmarked) | -9.11% |
| COc1ccc(N2C(=O)CSCC2=O)cc1OC | 11.1% |
| COc1ccc(NC(=O)c2ccc3c(c2)C(=O)N(CC2CCCO2)C3=O)cc1O (centres unmarked) | -0.122% |

| SMILES | hERG current change (%, negative = inhibition) at 1uM |
| --- | --- |
| COc1ccc(OCC(=O)N/N=C/c2ccc(OC)c(OC)c2C(=O)O)cc1 | 7.14% |
| Cc1nc(NC(=O)C2CC2)sc1C(=O)Nc1ccccc1 | 11.6% |
| COc1cc(NC(=S)NC(=O)C(C)C)ccc1NC(=O)c1cc2ccccc2o1 | 5.69% |
| CC(C)CC(CO)N1CCN(C(=O)c2cccc(C(F)(F)F)c2)CCC1=O (centres unmarked) | 11.8% |
| COc1ccc(NC(=O)c2ccc(-n3nc(C)c[n+]3[O-])cc2)cc1 | 7.94% |
| CCC(C(=O)Nc1sc(C(N)=O)c(C)c1C(=O)OC)c1ccccc1 (centres unmarked) | 2.21% |
| CCOC(=O)C1CCN(CC(O)COCc2cccs2)CC1 (centres unmarked) | -23.6% |
| CCC1(c2ccc(F)cc2)NC(=O)N(CC(=O)NCc2ccc(C)cc2)C1=O (centres unmarked) | 10.2% |
| COc1ccc(C2CC(O)(C(C)(C)O)NO2)cc1 (centres unmarked) | 10.8% |
| CC(C)CN1C(=O)C(=O)N(CC(=O)c2ccc3c(c2)OCO3)C1=O | 2.78% |
| CC(C)(C)C(=O)N1CCN(c2nc3ccccc3o2)CC1 | 3.91% |
| COc1cccc(CC(NC(C)=O)C(=O)NC2CCN(C(=O)C3CC3)CC2)c1OC (centres unmarked) | 18.9% |
| O=C(CN1C(=O)C2CCCCC2C1=O)Nc1ccc(S(=O)(=O)Nc2ncccn2)cc1 (centres unmarked) | 21.8% |
| CS(=O)(=O)N(CC(=O)N/N=C/c1cc([N+](=O)[O-])ccc1Cl)c1ccccc1 | 11.5% |
| O=C(O)/C(=C\c1ccccc1)c1ccc2ccccc2c1 | 9.78% |
| C=CCn1c(=S)[nH]c2sccc2c1=O | 15% |
| Cc1ccccc1C(=O)N1CCC(C(=O)Nc2ccc(F)cc2)CC1 | 8.49% |
| CC(=O)C[C@H]1c2ccccc2S(=O)(=O)N1C1CCCCC1 | 3.92% |
| Cc1ccsc1C(=O)C1CCCN(Cc2cccn2-c2ccc(Cl)cn2)C1 (centres unmarked) | -84.3% |
| CC(=O)Nc1ccc(NC(=O)c2ccccc2N(C)S(=O)(=O)c2ccc(C)cc2)cc1 | 11% |
| Cc1cc(C)cc(OCC(=O)O/N=C(\N)c2ccccc2Cl)c1 | 2.43% |
| Cl.NCCCC[C@H](NC(=O)C1CCNCC1)c1nnc([C@@H](N)CO)o1 | 10.8% |
| Cc1ccccc1N(CC(=O)NC1CCCC1)C(=O)CS(=O)CC(=O)Nc1ccc2c(c1)OCO2 (centres unmarked) | 2.44% |

| SMILES | hERG current change (%, negative = inhibition) at 1uM |
| --- | --- |
| C(=N\Nc1nc2ccccc2[nH]1)/c1cccc2nccnc12 | 3.06% |
| CCc1cccc(C)c1NC(=O)CSc1nnc(-c2ccco2)n1N | 3.97% |
| Cc1ccc(C)c(C(=O)C(C)OC(=O)CN2C(=O)NC3(CC(C)CC(C)(C)C3)C2=O)c1 (centres unmarked) | 21.3% |
| O=C(CNC(=S)N(CCCN1CCOCC1)Cc1cccs1)NCCN1CCOCC1 | 13.9% |
| CCOC(=O)Cn1c(=O)n(Cc2ccc(C)cc2)c(=O)c2cccnc21 | 7.97% |
| CCn1cc(/C=C/C(=O)c2ccc(O)cc2)c(C)n1 | 5.24% |
| COc1cc(/C=C2\SC(=S)N(CC(=O)NC3=NCCS3)C2=O)cc(OC)c1OC | 8.3% |
| COCCN(C(=O)COC(=O)c1cc2c(s1)CCC2)c1c(N)n(Cc2ccccc2)c(=O)[nH]c1=O | 4.11% |
| COC(=O)c1cc(OC)c(OC)cc1NC(=O)Nc1ccc(OC)cc1 | 7.13% |
| Cc1noc(C)c1S(=O)(=O)N1CCCC(C(=O)NCCc2ccc(Cl)cc2)C1 (centres unmarked) | 6.81% |
| COc1ccc2nc(-c3ccccc3)cc(C(=O)OCC(=O)N3CC(C)OC(C)C3)c2c1 (centres unmarked) | 8.15% |
| COc1ccc(Oc2cccc(Cl)c2CNC(=O)c2ccccc2C(=O)O)cc1 | 10.3% |
| COCC(=O)Nc1cccc2ccccc12 | 11.5% |
| COc1ccc(C(CCO)NC(=O)c2cccs2)cc1OC (centres unmarked) | -2.3% |
| COc1ccccc1C(CNC(=O)c1ccc(-c2ccccc2Cl)o1)N1CCCC1 (centres unmarked) | -31.4% |
| O=C(NCc1ccccn1)C12CC3CC(CC(C3)C1)C2 | 12.8% |
| Cc1ccc(NC(=S)NC(NC(=O)Cc2cccc3ccccc23)C(Cl)(Cl)Cl)cc1 (centres unmarked) | 8.44% |
| COCCCNS(=O)(=O)c1ccc(OC)c(Cl)c1Cl | 7.95% |
| Cc1ccc(-n2ncc(C#N)c2/N=C/N2CCOCC2)cc1 | 2.97% |
| COc1ccc(CCn2c(NN=C3CCCC3)nc3c2c(=O)[nH]c(=O)n3C)cc1 | 9.32% |
| CCOC(=O)C1=C(CP(=O)(c2ccccc2)c2ccccc2)NC(=O)NC1c1ccc(OC)cc1 (centres unmarked) | 0.262% |
| NNC(=S)NC1CC2CC1C1C=CCC21 (centres unmarked) | 13.6% |
| COc1ccccc1N1CC(C(=O)Nc2nnc(SC)s2)CC1=O (centres unmarked) | 7.83% |

| SMILES | hERG current change (%, negative = inhibition) at 1uM |
| --- | --- |
| CCN(CC)c1nc(N)c2c(N)n(-c3ccccc3C)c(=S)c(C#N)c2c1C#N | 5.61% |
| CC1(C)CC(=O)c2sc(NC(=O)Cc3cccs3)nc2C1 | -0.543% |
| CC(NC(=O)CN1CCN(Cc2ccc(Cl)cc2)C1=O)c1ccc2c(c1)OCCO2 (centres unmarked) | 4.39% |
| COc1ccc(NC(=O)Nc2cnccn2)cc1 | 6.42% |
| CCOC(=O)C1=C(C)NC(=O)NC1c1ccc2c(c1)OCO2 (centres unmarked) | 2.46% |
| O=C(CCN1CCOCC1)NNC(=O)Nc1cccc(Cl)c1 | 8.06% |
| Br.CC(Sc1nnc(COc2ccc3ccccc3c2)n1C)C(=O)O (centres unmarked) | 7.69% |
| Cn1cccc1C(=O)NC(=O)COC(=O)C12CC3CC(CC(O)(C3)C1)C2 | 1.34% |
| O=C(NC1CCCCCC1)c1cccnc1Sc1ccccc1 | 5.32% |
| COc1ccccc1C(=O)Nc1ccc(NC(=O)c2ccco2)cn1 | 12.7% |
| COc1ccccc1N(CC(=O)Nc1ccccc1C)S(C)(=O)=O | 12.1% |
| NS(=O)(=O)c1ccc(CCNC(=O)CSc2nc3ccsc3c(=O)n2CC(=O)O)cc1 | 8.4% |
| Cc1cc(OCc2ccc([N+](=O)[O-])cc2)c2c3c(c(=O)oc2c1)CCCC3 | 9.71% |
| COC(=O)[C@@H]1C[C@@]2(O)[C@@H](O)[C@@H](O)[C@@H](O)C[C@H]2N1CC(c1ccccc1)c1ccccc1 | 13.1% |
| COc1ccc(CCNC2=CC(=O)CC(C)(C)C2)cc1 | -1.85% |
| COc1ccc(CNc2ncnc3sccc23)cc1OC | 12% |
| CCCCCCCSc1nnc(-c2ccccc2N)c(=O)[nH]1 | 9.75% |
| COc1ccc(CCNc2nc(N3CCOCC3)nc(N3CCOCC3)n2)cc1OC | 7.52% |
| O=C(COc1ccccc1[N+](=O)[O-])NNC(=O)Nc1cccc2ccccc12 | 10.1% |
| Clc1ccc(-c2nn3cnnc3s2)c(Cl)c1 | 1.87% |
